From publication PMC12820563, “FoxP3 forms a head-to-head dimer in vivo and stabilizes its multimerization on adjacent microsatellites”
The other results are listed elsewhere or left out.

target: T1, MBP-FoxP1dN (Mus musculus, UniProt P58462 326-579); experiment: PD-seq (MBP pull-down with sequencing); 20 mM Tris-HCl pH 7.5, 100 mM NaCl, 1.5 mM MgCl2, 0.4 uM protein, 0.1 uM dsDNA library, 30 min, room temperature, amylose pull-down; high values mean tight binding; conditions: protein: recombinant; tags: His6-MBP; chain copies: 2; dsDNA, one strand shown
T1 sequence: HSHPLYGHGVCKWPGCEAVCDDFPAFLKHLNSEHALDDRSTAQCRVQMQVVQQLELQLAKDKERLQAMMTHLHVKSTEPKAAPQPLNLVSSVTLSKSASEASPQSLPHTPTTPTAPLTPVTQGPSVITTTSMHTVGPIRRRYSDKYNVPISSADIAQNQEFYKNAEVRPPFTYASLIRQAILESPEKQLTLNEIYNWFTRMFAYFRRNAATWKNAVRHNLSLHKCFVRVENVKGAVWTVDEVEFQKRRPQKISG
Summary of the method: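 Binding is the reads-per-million enrichment of pull-down relative to input, pooled across replicates. For this, 0.4 µM His6-MBP-tagged mouse FoxP3 or FoxP1 fragment lacking the N-terminus, made in E. coli, was incubated with 0.1 µM Klenow-filled double-stranded degenerate DNA library for 30 min at room temperature in Tris pH 7.5 buffer with NaCl and MgCl2. Complexes bound to amylose resin were washed three times before proteinase K released the DNA for PCR barcoding and Illumina sequencing.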

In order of falling binding signal:
1. GATGATTGTTCTCCCAGCTGATGAATTGTTGACGTCGAGTAAACAAATTTTCCTAATCTTTCTGTTCAAGCGCCATCTAC  2.22 RPM ratio (pull-down/input)
2. GATGATTGTTCTCCCAGCTGATGAATTTATTTATTCGAGTAAACAAATTTTCCTAATCTTTCTGTTCAAGCGCCATCTAC  2.17 RPM ratio (pull-down/input)
3. GATGATTGTTCTCCCAGCTGATGAATTAATGTTATCGAGTAAACAAATTTTCCTAATCTTTCTGTTCAAGCGCCATCTAC  1.95 RPM ratio (pull-down/input)
4. GATGATTGTTCTCCCAGCTGATGAATTAGTGTTATCGAGTAAACAAATTTTCCTAATCTTTCTGTTCAAGCGCCATCTAC  1.8 RPM ratio (pull-down/input)
5. GATGATTGTTCTCCCAGCTGATGAATTAATATTTTCGAGTAAACAAATTTTCCTAATCTTTCTGTTCAAGCGCCATCTAC  1.78 RPM ratio (pull-down/input)
6. GATGATTGTTCTCCCAGCTGATGAATTACAAAAATCGAGTAAACAAATTTTCCTAATCTTTCTGTTCAAGCGCCATCTAC  1.59 RPM ratio (pull-down/input)
7. GATGATTGTTCTCCCAGCTGATGAATTTACGTGATCGAGTAAACAAATTTTCCTAATCTTTCTGTTCAAGCGCCATCTAC  1.32 RPM ratio (pull-down/input)
8. GATGATTGTTCTCCCAGCTGATGAATTATATGTTTCGAGTAAACAAATTTTCCTAATCTTTCTGTTCAAGCGCCATCTAC  1.31 RPM ratio (pull-down/input)
9. GATGATTGTTCTCCCAGCTGATGAATTTATCTTATCGAGTAAACAAATTTTCCTAATCTTTCTGTTCAAGCGCCATCTAC  1.24 RPM ratio (pull-down/input)
10. GATGATTGTTCTCCCAGCTGATGAATTGACGAATTCGAGTAAACAAATTTTCCTAATCTTTCTGTTCAAGCGCCATCTAC  1.24 RPM ratio (pull-down/input)
11. GATGATTGTTCTCCCAGCTGATGAATTACAGGTATCGAGTAAACAAATTTTCCTAATCTTTCTGTTCAAGCGCCATCTAC  1.23 RPM ratio (pull-down/input)
12. GATGATTGTTCTCCCAGCTGATGAATTTATACGTTCGAGTAAACAAATTTTCCTAATCTTTCTGTTCAAGCGCCATCTAC  1.19 RPM ratio (pull-down/input)
13. GATGATTGTTCTCCCAGCTGATGAATTGCTCGCATCGAGTAAACAAATTTTCCTAATCTTTCTGTTCAAGCGCCATCTAC  1.18 RPM ratio (pull-down/input)
14. GATGATTGTTCTCCCAGCTGATGAATTGGTGGCATCGAGTAAACAAATTTTCCTAATCTTTCTGTTCAAGCGCCATCTAC  1.12 RPM ratio (pull-down/input)
15. GATGATTGTTCTCCCAGCTGATGAATTGCTTGAATCGAGTAAACAAATTTTCCTAATCTTTCTGTTCAAGCGCCATCTAC  1.12 RPM ratio (pull-down/input)
16. GATGATTGTTCTCCCAGCTGATGAATTTAGGTTATCGAGTAAACAAATTTTCCTAATCTTTCTGTTCAAGCGCCATCTAC  1.08 RPM ratio (pull-down/input)
17. GATGATTGTTCTCCCAGCTGATGAATTTGCTGACTCGAGTAAACAAATTTTCCTAATCTTTCTGTTCAAGCGCCATCTAC  1.08 RPM ratio (pull-down/input)
18. GATGATTGTTCTCCCAGCTGATGAATTGTCACCTTCGAGTAAACAAATTTTCCTAATCTTTCTGTTCAAGCGCCATCTAC  1.07 RPM ratio (pull-down/input)
19. GATGATTGTTCTCCCAGCTGATGAATTATCACGCTCGAGTAAACAAATTTTCCTAATCTTTCTGTTCAAGCGCCATCTAC  1.06 RPM ratio (pull-down/input)
20. GATGATTGTTCTCCCAGCTGATGAATTAAACTATTCGAGTAAACAAATTTTCCTAATCTTTCTGTTCAAGCGCCATCTAC  1.03 RPM ratio (pull-down/input)
21. GATGATTGTTCTCCCAGCTGATGAATTGCTTCGGTCGAGTAAACAAATTTTCCTAATCTTTCTGTTCAAGCGCCATCTAC  1.01 RPM ratio (pull-down/input)
22. GATGATTGTTCTCCCAGCTGATGAATTGCCATACTCGAGTAAACAAATTTTCCTAATCTTTCTGTTCAAGCGCCATCTAC  1 RPM ratio (pull-down/input)
23. GATGATTGTTCTCCCAGCTGATGAATTGTGACCCTCGAGTAAACAAATTTTCCTAATCTTTCTGTTCAAGCGCCATCTAC  1 RPM ratio (pull-down/input)
24. GATGATTGTTCTCCCAGCTGATGAATTTAAACCATCGAGTAAACAAATTTTCCTAATCTTTCTGTTCAAGCGCCATCTAC  0.996 RPM ratio (pull-down/input)
25. GATGATTGTTCTCCCAGCTGATGAATTGCTCCATTCGAGTAAACAAATTTTCCTAATCTTTCTGTTCAAGCGCCATCTAC  0.991 RPM ratio (pull-down/input)
26. GATGATTGTTCTCCCAGCTGATGAATTGGACACTTCGAGTAAACAAATTTTCCTAATCTTTCTGTTCAAGCGCCATCTAC  0.982 RPM ratio (pull-down/input)
27. GATGATTGTTCTCCCAGCTGATGAATTAAGACCATCGAGTAAACAAATTTTCCTAATCTTTCTGTTCAAGCGCCATCTAC  0.978 RPM ratio (pull-down/input)
28. GATGATTGTTCTCCCAGCTGATGAATTCGATGATTCGAGTAAACAAATTTTCCTAATCTTTCTGTTCAAGCGCCATCTAC  0.978 RPM ratio (pull-down/input)
29. GATGATTGTTCTCCCAGCTGATGAATTCAGATTATCGAGTAAACAAATTTTCCTAATCTTTCTGTTCAAGCGCCATCTAC  0.977 RPM ratio (pull-down/input)
30. GATGATTGTTCTCCCAGCTGATGAATTGGCAATTTCGAGTAAACAAATTTTCCTAATCTTTCTGTTCAAGCGCCATCTAC  0.975 RPM ratio (pull-down/input)
31. GATGATTGTTCTCCCAGCTGATGAATTGAATCTATCGAGTAAACAAATTTTCCTAATCTTTCTGTTCAAGCGCCATCTAC  0.958 RPM ratio (pull-down/input)
32. GATGATTGTTCTCCCAGCTGATGAATTTGAGTGTTCGAGTAAACAAATTTTCCTAATCTTTCTGTTCAAGCGCCATCTAC  0.944 RPM ratio (pull-down/input)
33. GATGATTGTTCTCCCAGCTGATGAATTTCTCTATTCGAGTAAACAAATTTTCCTAATCTTTCTGTTCAAGCGCCATCTAC  0.936 RPM ratio (pull-down/input)
34. GATGATTGTTCTCCCAGCTGATGAATTCAGGTCATCGAGTAAACAAATTTTCCTAATCTTTCTGTTCAAGCGCCATCTAC  0.934 RPM ratio (pull-down/input)
35. GATGATTGTTCTCCCAGCTGATGAATTTGGAAATTCGAGTAAACAAATTTTCCTAATCTTTCTGTTCAAGCGCCATCTAC  0.93 RPM ratio (pull-down/input)
36. GATGATTGTTCTCCCAGCTGATGAATTAATTCCGTCGAGTAAACAAATTTTCCTAATCTTTCTGTTCAAGCGCCATCTAC  0.921 RPM ratio (pull-down/input)
37. GATGATTGTTCTCCCAGCTGATGAATTGGGTGACTCGAGTAAACAAATTTTCCTAATCTTTCTGTTCAAGCGCCATCTAC  0.92 RPM ratio (pull-down/input)
38. GATGATTGTTCTCCCAGCTGATGAATTAATTCGATCGAGTAAACAAATTTTCCTAATCTTTCTGTTCAAGCGCCATCTAC  0.92 RPM ratio (pull-down/input)
39. GATGATTGTTCTCCCAGCTGATGAATTCTATGAATCGAGTAAACAAATTTTCCTAATCTTTCTGTTCAAGCGCCATCTAC  0.911 RPM ratio (pull-down/input)
40. GATGATTGTTCTCCCAGCTGATGAATTTTGAGAGTCGAGTAAACAAATTTTCCTAATCTTTCTGTTCAAGCGCCATCTAC  0.905 RPM ratio (pull-down/input)
41. GATGATTGTTCTCCCAGCTGATGAATTGGTCATGTCGAGTAAACAAATTTTCCTAATCTTTCTGTTCAAGCGCCATCTAC  0.895 RPM ratio (pull-down/input)
42. GATGATTGTTCTCCCAGCTGATGAATTCCTTTTTTCGAGTAAACAAATTTTCCTAATCTTTCTGTTCAAGCGCCATCTAC  0.895 RPM ratio (pull-down/input)
43. GATGATTGTTCTCCCAGCTGATGAATTGGATCCATCGAGTAAACAAATTTTCCTAATCTTTCTGTTCAAGCGCCATCTAC  0.893 RPM ratio (pull-down/input)
44. GATGATTGTTCTCCCAGCTGATGAATTTCTTTCGTCGAGTAAACAAATTTTCCTAATCTTTCTGTTCAAGCGCCATCTAC  0.887 RPM ratio (pull-down/input)
45. GATGATTGTTCTCCCAGCTGATGAATTTTCCAACTCGAGTAAACAAATTTTCCTAATCTTTCTGTTCAAGCGCCATCTAC  0.887 RPM ratio (pull-down/input)
46. GATGATTGTTCTCCCAGCTGATGAATTTCAGCTATCGAGTAAACAAATTTTCCTAATCTTTCTGTTCAAGCGCCATCTAC  0.886 RPM ratio (pull-down/input)
47. GATGATTGTTCTCCCAGCTGATGAATTTAACTCGTCGAGTAAACAAATTTTCCTAATCTTTCTGTTCAAGCGCCATCTAC  0.885 RPM ratio (pull-down/input)
48. GATGATTGTTCTCCCAGCTGATGAATTGATGAGGTCGAGTAAACAAATTTTCCTAATCTTTCTGTTCAAGCGCCATCTAC  0.884 RPM ratio (pull-down/input)
49. GATGATTGTTCTCCCAGCTGATGAATTCAGTAACTCGAGTAAACAAATTTTCCTAATCTTTCTGTTCAAGCGCCATCTAC  0.879 RPM ratio (pull-down/input)
50. GATGATTGTTCTCCCAGCTGATGAATTCAACGTGTCGAGTAAACAAATTTTCCTAATCTTTCTGTTCAAGCGCCATCTAC  0.875 RPM ratio (pull-down/input)
51. GATGATTGTTCTCCCAGCTGATGAATTAATCCTCTCGAGTAAACAAATTTTCCTAATCTTTCTGTTCAAGCGCCATCTAC  0.87 RPM ratio (pull-down/input)
52. GATGATTGTTCTCCCAGCTGATGAATTAGAAAATTCGAGTAAACAAATTTTCCTAATCTTTCTGTTCAAGCGCCATCTAC  0.856 RPM ratio (pull-down/input)
53. GATGATTGTTCTCCCAGCTGATGAATTTGGGGCCTCGAGTAAACAAATTTTCCTAATCTTTCTGTTCAAGCGCCATCTAC  0.832 RPM ratio (pull-down/input)
54. GATGATTGTTCTCCCAGCTGATGAATTATGGGGGTCGAGTAAACAAATTTTCCTAATCTTTCTGTTCAAGCGCCATCTAC  0.831 RPM ratio (pull-down/input)
55. GATGATTGTTCTCCCAGCTGATGAATTCCTACGCTCGAGTAAACAAATTTTCCTAATCTTTCTGTTCAAGCGCCATCTAC  0.818 RPM ratio (pull-down/input)
56. GATGATTGTTCTCCCAGCTGATGAATTCGATGGATCGAGTAAACAAATTTTCCTAATCTTTCTGTTCAAGCGCCATCTAC  0.814 RPM ratio (pull-down/input)
57. GATGATTGTTCTCCCAGCTGATGAATTTCATCGCTCGAGTAAACAAATTTTCCTAATCTTTCTGTTCAAGCGCCATCTAC  0.798 RPM ratio (pull-down/input)
58. GATGATTGTTCTCCCAGCTGATGAATTAGGGGGCTCGAGTAAACAAATTTTCCTAATCTTTCTGTTCAAGCGCCATCTAC  0.791 RPM ratio (pull-down/input)
59. GATGATTGTTCTCCCAGCTGATGAATTCCGCACCTCGAGTAAACAAATTTTCCTAATCTTTCTGTTCAAGCGCCATCTAC  0.782 RPM ratio (pull-down/input)
60. GATGATTGTTCTCCCAGCTGATGAATTCCGGGCTTCGAGTAAACAAATTTTCCTAATCTTTCTGTTCAAGCGCCATCTAC  0.776 RPM ratio (pull-down/input)
61. GATGATTGTTCTCCCAGCTGATGAATTAACGGGGTCGAGTAAACAAATTTTCCTAATCTTTCTGTTCAAGCGCCATCTAC  0.768 RPM ratio (pull-down/input)
62. GATGATTGTTCTCCCAGCTGATGAATTCGGCACCTCGAGTAAACAAATTTTCCTAATCTTTCTGTTCAAGCGCCATCTAC  0.767 RPM ratio (pull-down/input)
63. GATGATTGTTCTCCCAGCTGATGAATTAGCTGGGTCGAGTAAACAAATTTTCCTAATCTTTCTGTTCAAGCGCCATCTAC  0.747 RPM ratio (pull-down/input)
